The structures appear in SMILES notation. Screen size: about 39,000 compounds; about 220 (0.56%) showed activity. This is one part of the list.
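Note: static incubation at 37 °C against the wild-type strain, values averaged over two biological replicates.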

For the experiment, the system named is Escherichia coli K-12 BW25113. As to the kind of experiment: relative growth (OD600 normalised to plate interquartile mean) (fraction); higher = less growth inhibition, active = 0.2 or less. Conditions: 50 µM; LB; incubation time: overnight (16-24 h).
In the case of `C[C@@H]1CCCCO[C@@H](CN(C)C(=O)c2ccncc2)[C@@H](C)CN([C@@H](C)CO)C(=O)c2cc(NS(=O)(=O)c3cn(C)cn3)ccc2O1`, the relative growth is inactive: 0.997.

On to `Cc1noc(C)c1NC(=O)N(C)C[C@@H]1OCCCC[C@H](C)Oc2ccc(NC(=O)Nc3ccc(C(F)(F)F)cc3)cc2C(=O)N([C@@H](C)CO)C[C@@H]1C`, for which the relative growth is inactive: 1.06.

Consider `O=C(O)CCc1nc2ccccc2[nH]1`, for which the relative growth is inactive: 0.836.

As to `Cl.NC[C@H](N)C(=O)O`, the relative growth was inactive: 0.967.

With `COc1ccc(S(=O)(=O)Nc2cccc3c2O[C@@H](CN(C)S(=O)(=O)c2ccc(F)cc2)[C@H](C)CN([C@@H](C)CO)C3=O)cc1`, the relative growth is inactive: 0.984.

For the compound `C[C@H](CO)N1C[C@H](C)[C@@H](CN(C)CC2CCOCC2)Oc2ncc(C#Cc3ccc(F)cc3)cc2C1=O`, the relative growth is inactive: 0.974.

For the compound `COc1ccc(S(=O)(=O)N(C)C[C@H]2OCc3cn(nn3)CCCC(=O)N([C@H](C)CO)C[C@H]2C)cc1`, the relative growth is inactive: 0.976.

Consider `Cc1ccc(S(=O)(=O)N(C)C[C@@H]2Oc3ccc(NS(=O)(=O)c4ccccc4)cc3C(=O)N([C@@H](C)CO)C[C@H]2C)cc1`, for which the relative growth is inactive: 0.983.

For the compound `COc1ccc(-c2cnc3c(c2)C(=O)N([C@H](C)CO)C[C@@H](C)[C@@H](CN(C)C(=O)Cc2ccccn2)O3)cc1`, the relative growth was inactive: 1.01.

On to `CC(=O)OC1C(=O)C2(C)C(O)CC3OCC3(OC(C)=O)C2C(OC(=O)c2ccccc2)C2(O)CC(OC(=O)C(O)C(NC(=O)c3ccccc3)c3ccccc3)C(C)=C1C2(C)C` (centres undefined), for which the relative growth is inactive: 1.05.

Take `Cc1cc(C)n2nc(N)nc2n1`: the relative growth was inactive: 0.965.

For the compound `C[C@@H]1CN([C@H](C)CO)C(=O)c2cc(NC(=O)Nc3cccc4ccccc34)ccc2O[C@@H](C)CCCCO[C@H]1CN(C)C(=O)Nc1ccc(C(F)(F)F)cc1`, the relative growth is inactive: 0.992.

As to `CCN1CCC(N(C)S(=O)(=O)c2cn(C)c(=O)n(C)c2=O)CC1`, the relative growth was inactive: 0.994.

On to `CSC[C@@H](O)Cn1[nH]c(=O)ccc1=O`, for which the relative growth is inactive: 1.02.

As for `COc1cccc(NC(=S)NN)c1`, the relative growth is inactive: 0.871.

For the compound `C[C@H](CO)N1C[C@H](C)[C@@H](CN(C)Cc2ccc(C(=O)O)cc2)Oc2c(NC(=O)C3CCOCC3)cccc2C1=O`, the relative growth was inactive: 0.998.

For `Cc1ccc([C@@H](CN)c2c[nH]c3ccccc23)o1`, the relative growth is inactive: 1.

Regarding `C[C@H]1CN([C@@H](C)CO)C(=O)Cc2cc(NC(=O)C3CC3)ccc2O[C@@H]1CN(C)C(=O)Nc1ccc2c(c1)OCO2`, the relative growth was inactive: 0.997.

In the case of `CCCCCCCCCCCCCCCC[N+](C)(C)C`, the relative growth was active: 0.0755.

Values taken from the supplement of paper PMC9446081.
